This note sets out measurements from PubChem BioAssay AID488969 (Vanderbilt High Throughput Screening Facility, 2010).

The full ranking holds about 110,000 compounds; the median of “z-score” is about -0.1, and the highest 2% start at about 2. The list shows a part of the results. Calls of active or inactive are those of the source.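 How the source made its calls: active means z-score in the third read window above 3 or below -3; inactive means the rest.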

In this assay the target is Metabotropic glutamate receptor 8 (Rattus norvegicus) (UniProt P70579). Description: rat mGluR8 modulators via GIRK flux, primary screen, cell-based, thallium flux, HTS (AID 488969). Conditions: HEK293 rat mGluR8, GIRK (G protein-gated inwardly rectifying potassium channel) thallium flux, FluoZin2; at 10 µM; stronger effect = higher value; submaximal glutamate (EC20) added with thallium.
Chain of UniProt P70579 (P70579 whole entry, looked up): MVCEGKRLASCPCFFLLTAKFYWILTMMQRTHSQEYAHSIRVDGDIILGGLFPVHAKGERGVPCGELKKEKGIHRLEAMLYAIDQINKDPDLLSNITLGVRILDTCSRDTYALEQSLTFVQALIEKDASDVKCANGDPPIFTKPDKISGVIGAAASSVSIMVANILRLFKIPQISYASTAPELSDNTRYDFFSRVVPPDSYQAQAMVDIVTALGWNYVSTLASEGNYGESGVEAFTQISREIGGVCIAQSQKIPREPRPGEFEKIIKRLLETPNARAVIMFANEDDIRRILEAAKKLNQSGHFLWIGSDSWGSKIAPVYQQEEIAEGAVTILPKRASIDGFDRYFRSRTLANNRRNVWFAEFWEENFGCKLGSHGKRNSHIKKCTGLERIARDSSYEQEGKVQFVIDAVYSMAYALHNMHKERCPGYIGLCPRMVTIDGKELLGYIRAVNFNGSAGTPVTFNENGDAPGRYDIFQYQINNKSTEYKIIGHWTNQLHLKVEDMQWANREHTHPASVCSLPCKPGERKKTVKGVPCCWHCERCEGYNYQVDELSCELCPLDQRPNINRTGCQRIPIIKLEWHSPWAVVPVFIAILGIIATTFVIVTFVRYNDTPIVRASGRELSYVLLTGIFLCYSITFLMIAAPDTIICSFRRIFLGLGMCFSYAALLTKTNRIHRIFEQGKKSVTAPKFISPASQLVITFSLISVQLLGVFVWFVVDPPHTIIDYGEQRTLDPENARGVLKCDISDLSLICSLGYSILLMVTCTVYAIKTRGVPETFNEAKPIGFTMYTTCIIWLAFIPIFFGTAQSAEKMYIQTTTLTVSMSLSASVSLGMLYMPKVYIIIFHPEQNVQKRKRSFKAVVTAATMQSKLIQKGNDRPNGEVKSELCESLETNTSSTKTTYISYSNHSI
Turning to `C#CCN1C(=O)C(O)(CC(=O)c2ccc(OC)c(OC)c2)c2ccccc21` (configuration not stated), the z-score was -0.0381.

`COc1ccc(C(=O)COC(=O)C(CC(C)C)N2C(=O)c3ccccc3C2=O)cc1` (configuration not stated) registered a z-score of -0.0904. `COC(=O)C1=C(C)NC(C)=C(C(=O)OC)C1C(=O)OCC(=O)N1c2ccccc2CC1C` (configuration not stated) had a z-score of 0.131. Under `Cc1c(N2C(=O)/C(=C/c3ccccc3)SC2=S)c(=O)n(-c2ccccc2)n1C` stands -0.226; under `Cc1nc(C)c(-c2csc(NCCc3ccccc3)n2)s1`, -0.396; under `OC(CNCCc1ccc(C(F)(F)F)cc1)COc1ccc2ccccc2c1` (configuration not stated), 0.0956. Under `C=CCc1ccc(OCCCOc2ccc(C)c(C)c2)c(OC)c1` stands -0.104; under `CC(NC(=O)COc1ccccc1)C1COc2ccccc2O1` (configuration not stated), -0.67; under `CCc1ccc(-n2c(Cn3nc(C(F)(F)F)cc3C)n[nH]c2=S)cc1`, -0.112.

`CC(C)OC(=O)CCc1nc2ccccc2[nH]c1=O` registered a z-score of 1.33. Under `CCc1cc(-c2n[nH]c(=S)n2Cc2ccccc2)cs1` stands 0.464; under `Cc1ccc(-c2csc3ncnc(SCC(=O)c4ccc5c(c4)OCCO5)c23)cc1`, -0.0954. Take `Cc1ccc(C(C)C)c(OCCN)c1`: the z-score turned out to be 0.794. Under `CCOc1cc(S(=O)(=O)Nc2ccc(Cl)cn2)ccc1Cl` stands 0.279. For `CCOC(=O)C1CCN(C(=O)CN(c2ccc(OC)cc2)S(=O)(=O)c2c(C)nn(C)c2C)CC1`, the z-score was -0.304. Compound `CS(=O)(=O)N(CC(=O)N1CCCC1)c1ccc2c(c1)OCCO2` yielded a z-score of 0.0431. Under `CCOC(=O)C(CC)/C(C)=N/NC(=O)c1ccccc1[N+](=O)[O-]` (configuration not stated) stands -0.147. `O=C(NCCOc1ccccc1)c1ccccc1`: the z-score was determined as 0.0322. Under `CCCCNC(=S)Nc1ccccc1F` stands 0.54; under `O=Nc1c(O)n(Cc2cccc(Cl)c2)c2ccccc12`, -0.611. `CC1(C)Cc2c(C#N)c(OCC(=O)c3ccccc3)nc(-c3ccoc3)c2CO1` displayed a z-score of -0.0896. Under `NC(=O)C1CCN(C2CC(=O)N(c3ccc(F)c(Cl)c3)C2=O)CC1` (configuration not stated) stands -0.0189; under `COC(=O)c1cc(OC)nc2c1c(=O)n(C)c(=O)n2C`, -0.285; under `COc1cc([N+](=O)[O-])ccc1NC(=O)CCN1C(=O)C2C3CCC(C3)C2C1=O` (configuration not stated), 0.312. `COC(=O)c1c(C)oc2ccc(N(C(=O)c3ccncc3)S(=O)(=O)c3ccc4ccccc4c3)cc12` showed a z-score of -0.0657.

The compound `CCOc1cc(C2C(C(=O)OC)=C(C)N=C3SCCC(=O)N32)ccc1OC(C)=O` (configuration not stated) returned a z-score of -0.187. On to `CCOc1cccc(N2C(=O)CC(N3CCN(c4ccc(S(=O)(=O)CC)cc4)CC3)C2=O)c1` (configuration not stated), for which the z-score turned out to be 0.236.

The compound `N=c1cc(C2(O)CCCCC2)n2c(nc3ccccc32)s1` gave a z-score of 0.286.

`Fc1ccc(Cn2cnc3ccccc32)cc1` gave a z-score of -0.209. Under `CCOc1ccc(OCC)c(-c2c(=O)n(OCc3ccc(Cl)cc3)c3ccccc3[n+]2[O-])c1` stands -0.24; under `CCOP(=O)(OCC)C(Nc1ccccn1)c1ccccc1` (configuration not stated), -0.0386. Consider `COc1ccc(CCNC(=O)COc2ccc(S(=O)(=O)NC(C)C)cc2Cl)cc1OC`, for which the z-score was -0.0477. `COC(=O)C1=C(O)CSC1=Nc1ccc(C)cc1` displayed a z-score of -0.345. Under `Cc1cc(NC(=O)COc2ccc(N(C)S(=O)(=O)c3ccccc3)cc2)no1` stands 1.75; under `c1ccc(-c2cc3c(-n4cccc4)ncnc3o2)cc1`, -0.503. Under `Cc1ccc(-c2cnc(NC(=O)CCC(=O)N(C)Cc3ccccc3)n2C)cc1` stands -0.765; under `Fc1ccccc1NC(=S)NN(Cc1ccccc1)c1ccccc1`, active: 5.03. Under `CCOC(=O)c1c(C)[nH]c(C(=O)CSc2nnc(-c3ccncc3)n2CC)c1C` stands -0.926; under `CCCOc1c(Br)cc(C2C3=C(CCCC3=O)N(C)C3=C2C(=O)CCC3)cc1OC`, -0.905. As to `COc1ccc(N2CCn3c2nc2c3c(=O)n(CCCc3ccccc3)c(=O)n2C)c(OC)c1`, the z-score is -1.93. Under `NC(=O)c1ccsc1NC(=O)COC(=O)c1ccccc1NCc1ccco1` stands -0.663; under `COc1ccccc1CNc1nc2ccccc2n1CCN1CCCCC1`, 0.582; under `CCOC(=O)C(=CNc1ccc2c(c1)nnn2-c1ccc(Cl)cc1)C(=O)OCC`, -0.751. Under `Cc1ccc(Cc2cnc(NC(=O)C3CCCO3)s2)cc1` (configuration not stated) stands -0.316; under `CCOc1ccc(CNC(=O)CCn2c(=O)oc3ccccc32)cc1OC`, 0.903; under `N#CC(c1cccc(Cl)c1)c1ncc(C(F)(F)F)cc1Cl` (configuration not stated), -0.146. Under `Cn1c2c(c(=O)n(C)c1=O)CN(Cc1ccc(F)cc1)CN2` stands 0.281. As to `CN(CC(=O)NCc1ccc(Cl)cc1)S(=O)(=O)c1cccc2nsnc12`, the z-score was -0.323. Under `Cc1cccc(C(=O)Nc2cc(OCc3cccc(F)c3)c(Cl)cc2Cl)c1` stands 0.182. In the case of `COc1ccc(S(=O)(=O)NC(Cc2cnc[nH]2)C(=O)O)cc1` (configuration not stated), the z-score is -0.0594. Under `CCOc1ccc(NC(=O)CCn2cccc2)cc1` stands -0.228; under `Cc1c(C(=O)N2CCCC2)sc(NC(=O)c2cccc(Cl)c2)c1C#N`, -2.18; under `CCN1C(=O)C(CC(=O)N2CCN(C(c3ccccc3)c3ccccc3)CC2)N(CC)C1=O` (configuration not stated), -0.00737.

`C=CCn1c(SCC(=O)c2[nH]c(C)c(C(=O)OC)c2C)nc2scc(-c3ccc(OC)c(OC)c3)c2c1=O` had a z-score of -0.0245. Under `COc1ccc(-c2noc(CCCC(=O)NCCc3ccccc3)n2)cc1OC` stands -0.361; under `CC(Oc1ccc2ccc(=O)oc2c1)C(=O)c1ccccc1` (configuration not stated), 0.00606; under `CCCCCCCCOC(=O)C1=C(C)Nc2nnnn2C1c1cccs1` (configuration not stated), 0.117. Under `CCC(C)NC(=O)CSC1=Nc2ccccc2C2=NC(CC(=O)NCc3ccccc3)C(=O)N12` (configuration not stated) stands -0.278.

On to `COCCOC(=O)c1c(C)nc(SCC(=O)Nc2ccc(OC)cc2)c(C#N)c1-c1ccco1`, for which the z-score amounted to 0.597.

`CCCCC(CC)CNC(=O)c1cccs1` (configuration not stated) showed a z-score of -0.164. As for `CCOc1ccc2nc(C)cc(Nc3ccc4c(c3)OCCO4)c2c1`, the z-score was -0.142. As to `CCOc1cc(NC(=S)NCc2ccco2)c(OCC)cc1NC(C)=O`, the z-score is -0.0846. Under `Cc1ccccc1NC(=O)CN(c1ccc(F)cc1)S(C)(=O)=O` stands 0.203.

`CN1CCN(c2ccc(S(=O)(=O)N3CCCCC3)cc2NC(=O)c2ccc3ccccc3c2)CC1` displayed a z-score of -0.247. The compound `COc1ccc(OCCC(=O)OCC(=O)NC(=O)NC(C)(C)C)cc1` yielded a z-score of 0.144. Under `CC1CCCCN1C(=O)CSc1nnc(-c2ccco2)n1CC1CCCO1` (configuration not stated) stands -0.338; under `COc1cc(NC(=O)CSCC(=O)Nc2cccc(C(F)(F)F)c2)c(Cl)cc1Cl`, -0.193. With `COc1ccc(/C=C/C(=O)N(CC(C)C)CC(C)C)cc1Br`, the z-score was 0.14. Under `Cc1ccc(N2C(=O)/C(=C\c3ccco3)SC2=S)cc1` stands 0.0852. Under `Cc1ccc(CNC(=O)CCNC(=O)c2ccc(Br)o2)cc1` stands 0.452. In turn, `O=C(Nc1ccccc1N1CCCCC1)c1ccc(-c2ccc(Cl)cc2)o1` returned a z-score of -0.176.

Consider `O=c1ccn(Cc2ccccc2)c(=O)n1Cc1ccccc1`, for which the z-score is -0.295. In the case of `CCc1ccc(C(=O)NC(CCSC)C(=O)O)cc1` (configuration not stated), the z-score was 0.0962. Under `COc1ccc(/C(C)=N\Nc2nc(-c3ccc(Cl)cc3)cc(C(F)(F)F)n2)cc1OC` stands -0.264; under `CN(C1CCS(=O)(=O)C1)S(=O)C12CC3CC(CC(C3)C1)C2` (configuration not stated), 0.236.

In turn, `COc1ccc(C(=O)Oc2cc(/C=N/NC(N)=S)ccc2OC)cc1` gave a z-score of -0.115. Under `COc1ccc(OCc2nc3ccc(S(=O)(=O)Nc4ccccc4Cl)cc3[nH]2)cc1` stands -0.822. With `COc1cccc(OC)c1C(=O)N1CC(C)OC(C)C1` (configuration not stated), the z-score was found to be 0.174.

Take `O=C(Nc1ccc2nc3ccccc3nc2c1)c1ccccc1`: the z-score is -0.114. Under `Cc1cc(C)c(S(=O)(=O)NCC23C=CC(O2)C2C(=O)N(c4ccccc4)C(=O)C23)c(C)c1` (configuration not stated) stands -0.099.

Turning to `O=C1ON=C(c2ccccc2)/C1=C/c1ccc(-c2ccccc2[N+](=O)[O-])o1`, the z-score was -0.863. With `Brc1ccc(-c2nnc3n2C2(CCCC2)Cc2ccccc2-3)o1`, the z-score was -0.348. Under `CC(=O)NC1CC2CCCC(C1)N2CC(=O)Nc1ccccc1` (configuration not stated) stands -0.137; under `CCn1c(Cn2nnc(-c3ccccc3)n2)nnc1SCC(=O)Nc1cccc(C(C)=O)c1`, -1.29.

As to `Cc1c(C(=O)Nc2ccc(Cl)cc2)c2ccccn2c1CCc1ccncc1`, the z-score was determined as 0.14.

Regarding `Cc1c(C(=O)OCC2CCCO2)[nH]c2c1C(=O)CC(c1ccco1)C2` (configuration not stated), the z-score was -0.462. `CCCCc1nnc(NC(=O)CSc2nc(C)cc(=O)[nH]2)s1` gave a z-score of -1.47. On to `Cc1cccc(C)c1NC(=O)C(C)c1ccc(-c2ccccc2)c(F)c1` (configuration not stated), for which the z-score was -0.337. With `O=C(COC(=O)C1(c2ccccc2F)CCCC1)NC1CCS(=O)(=O)C1` (configuration not stated), the z-score worked out at 0.705.

`COc1cc2c(=O)n(CCCN3CCOCC3)c(=S)[nH]c2c(OC)c1OC` displayed a z-score of 2.07.

With `O=C(OCCCc1ccncc1)c1ccc(S(=O)(=O)N2CCOCC2)cc1`, the z-score was -0.0438.

For `O=C(N/C=N/OCc1cccc(C(F)(F)F)c1)N1OC[C@@H]2COc3ccc4ccccc4c3[C@@H]21`, the z-score is -0.0982.

Turning to `CCOC(=O)CSc1nnc(-c2ccoc2C)n1-c1ccc(C)cc1`, the z-score is -0.0495. Take `CC(C)c1ccc(Oc2cccc(C(=O)/C(C#N)=C/N(C)C)c2)cc1`: the z-score is -0.286. In the case of `O=S(=O)(Nn1cnnc1)c1ccccc1Cl`, the z-score was -0.31. As for `O=C(NCCc1ccccc1)C1CCCN(S(=O)(=O)c2cnc[nH]2)C1` (configuration not stated), the z-score was determined as 0.503. Regarding `C/C(NCc1ccccc1)=C(\C#N)C(=O)NCc1ccccc1`, the z-score was found to be 0.338. Under `COc1ccc(C(=O)NNC(=O)c2cc3cc([N+](=O)[O-])ccc3oc2=O)cc1OC` stands -0.394; under `Nc1nnnn1/N=C/c1cc(Cl)cc(Cl)c1OCc1ccc(Cl)cc1Cl`, -0.095. Consider `O=C1CN(C(=O)CSc2nc(-c3ccccc3)cs2)c2ccccc2N1`, for which the z-score is -0.563. `CCOC(=O)C(C(=O)OCC)C(C#N)c1ccccc1` (configuration not stated) yielded a z-score of -0.148.

Turning to `CCOC(=O)c1c(C)oc2c1c(C(c1ccncc1)N1CCOCC1)c(O)c1ccccc12` (configuration not stated), the z-score is -2. Under `COC(=O)c1c(-c2ccc(OC)c(OC)c2)csc1N` stands 0.119.

Turning to `COC(=O)C1=C(C)NC2=C(C(=O)CCC2)C1c1cn(Cc2ccc(Br)cc2)nc1-c1ccccc1` (configuration not stated), the z-score was -0.666. Under `Cc1c(NC(=O)c2cc(-c3cccs3)on2)c(=O)n(-c2ccccc2)n1C` stands 0.165; under `Cc1ccc2occ(C(c3nnnn3Cc3ccccc3)N3CCOCC3)c(=O)c2c1` (configuration not stated), -0.343; under `COc1ccccc1/C=C/C(=O)OCCN1CCOCC1`, 0.0154.
